The results in this text go back to article PMC10726135.

The list shows a part of the results. At the low end of the ranking the order means little. Measured with an extract: partners may take part in the binding.

The assay addresses T1, HNF4alpha8 (COS-7 nuclear extract) (UniProt P41235-5).
T1 sequence: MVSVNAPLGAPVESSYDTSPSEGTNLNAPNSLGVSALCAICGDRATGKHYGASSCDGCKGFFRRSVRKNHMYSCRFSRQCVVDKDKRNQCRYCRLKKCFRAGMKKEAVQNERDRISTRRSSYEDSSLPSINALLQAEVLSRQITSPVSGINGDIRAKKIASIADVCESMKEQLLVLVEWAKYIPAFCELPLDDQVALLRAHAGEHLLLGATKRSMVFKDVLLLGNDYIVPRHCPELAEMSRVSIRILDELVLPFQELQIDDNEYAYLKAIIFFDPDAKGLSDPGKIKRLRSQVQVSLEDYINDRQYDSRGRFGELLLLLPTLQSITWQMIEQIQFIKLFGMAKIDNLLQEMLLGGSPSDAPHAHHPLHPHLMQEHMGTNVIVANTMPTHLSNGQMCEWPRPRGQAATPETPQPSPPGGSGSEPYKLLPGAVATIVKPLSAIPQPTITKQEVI
The assay is described as follows: protein-binding microarray. The settings on record: COS-7 nuclear extract on double-stranded Agilent 4x180k PBM; binding buffer, salt, pH and temperature not given; high values mean tight binding; double strand, one strand shown; sequences stand for … in …GCCTAGGGAGATTAGAGTATCGGTCGA
Turning to ATGGAGAAGATAAGCAGATCTTTAGAGACA, the binding signal (log2 normalized intensity) was -1.2.
As for CCAGGGGAGGTTATCTTGGGGCTAATGTCT, the figure is 1.23; as for CCATTTGCTGCTCTAGATGAGGGGGAAAGG, -1.12.
As for ATCTCCAGATAAGACTTTGGACTTTGGACC, the figure is 11.8; as for TCACATTGGAGGAGGGGGCGGTTAAACATT, 0.332.
The value for GGCCTGGACTCCAAGCCCCAAAAACTTGGA was -0.426; that for GGAGCTGGTGGAGCAAAAAGGCCGTTCAAA was -1.41.
Regarding TGGCTTCTGACCTTTGGCATTGTGTTACGT, the binding signal (log2 normalized intensity) turned out to be 5.41.
As for CTTCTTCTGGAGCCTCAGTAAGTTTACTTC, the figure is 0.562; as for TAACAGCGGCATTCCTGTCAAAATCTGATC, -0.413.
Regarding AGATAAAAAGCTTTTCTTCCCCCCTCCCTC, the binding signal (log2 normalized intensity) amounted to 5.54.
As for GCTTCTGTTCGCAGACCTGCCAAAGTGTAC, the figure is 1.46; as for GTGTGCACAAGTCCTCACAATAATGAGAAA, -1.33.
The value for GCTATGCCTTAGCAAACAGACTGGTGGCAT was -1.29.
The value for GTGTGTATGAGAGAGAGAGAGAGGTGGGCA was -0.365; that for TCCCAGTTGTCTGATGGCTGCTTCACACAA was -1.39.
Take TCATTCATATCACCTAGGTGGAATCTTATA: the binding signal (log2 normalized intensity) is 0.948.
As for CCCGCAGTGAGGGACAAGGCTGTCCCCCAT, the figure is 1.75; as for GCAAATCTCTTGGTCATGGAGGGAACAAAA, -0.207; as for AAAGGGGAAAAGGTCAAATACCAAAATGTG, 2.38.
The value for GCCCCCCGCCCAGTGAAAACAGCCCTAACC was 4.32.
The value for CACCCCCATGCAAGTTCCCACAGAGCCCAC was 4.56; that for AGGGAATAAAGAACTCTAAGCAGCGAAGCT was -1.25; that for GCTGGCTATCAGTTGAGATTTATTCCCAGG was -1.33.
Take CACAGCTGAATCCAAAGGTCAATGCCAGGA: the binding signal (log2 normalized intensity) was 4.65.
The value for AGTACACACCTGCAACCTATTTCTTTTTGA was 0.0139; that for GTACCTCCTTTCAGAACGTGTTTCCAGGCA was 0.55.
As for GAAATATCATTATCTTGATCAGAAAAGAAA, the figure is 0.28; as for ACCCACCTACATTGATATTCCATATCAGCT, -1.1; as for TAGAATGTGCTGGATGTTTCCTTTGAACTC, 3.35.
The value for CCGCCCAGTGAAAACAGCCCTAACCAGGGG was -1.42.
Take TCTTAAGCTAACATGTACAGTATTGCGTAA: the binding signal (log2 normalized intensity) was -1.29.
The value for ACTTCACTCAGTGGGGTGTCTGTGTGCCTC was 1.82; that for CCTTTGGAAGGTGGGGGAGGAGACAGCTAC was -1.3.
As for CATAAGCCTTGCTGAGGAATTTGGACTTCA, the figure is 5.01; as for AGTGTTTTATGTGTATTTACTTATTGATAA, 1.99; as for AGGCAGATATACCAGATAAGGCAGTGGTTT, -0.984.
The value for ATCTCACATTCGTTAACATCAGCTGAGCAG was 0.803; that for TGGGAGGCAAAGGTTGCAGTGAGCTGTGAT was 1.8.
For the sequence TTTGTCAGCATCTTCACCGTAAAGCCACCC, the binding signal (log2 normalized intensity) worked out at 0.913.
As for ACAGTCCCTCCTCCAGCATAGGCTAGGACC, the figure is -0.686.
On to TAAGCGCTGCCCTGGTAAGTTCCACTGCAT, for which the binding signal (log2 normalized intensity) was -1.23.
The value for GGCCTACTTAGTCCAGGTTTAGCAAGAATA was -1.27.
The value for TCAGATTCCTCACTGATAAAACTGGAATAA was -1.34; that for TGGAGATAATAGGAGATAATAATACTTATC was -1.22; that for TTATCTTCTCCCCTGCCAAATCATGGAGGT was 1.34.
As for AAATGTCCTGAGTGATTGTAGTGTCATTGT, the figure is 1.81; as for GCCTGCCTGCCAACTCCACGCCCGCCGCCA, -1.15.
For the sequence AGGCCTGGAACCTGTCTGACAGGATGAATT, the binding signal (log2 normalized intensity) is -1.33.
Consider TACTTTGGACTGGGGACCTGGTCTGAGATA, for which the binding signal (log2 normalized intensity) came to 1.25.
As for CGCGCGGGAGGAGGAGACAAAGGCCGCGCC, the figure is 2.13.
As for TCACTGCTCTGGCCACTCCCTGGGCAGTGC, the figure is -1.21.
Take GGTGAGAGGGCTCTGTCTGCTGGGCCTTCA: the binding signal (log2 normalized intensity) is -1.21.
As for GGCTCAGGTTGCTGCCAGAGGGTGGCAGCA, the figure is -1.02.
The value for TCGCGAATCTGGCTAATGCATGTCCCTCCT was 0.811.
The value for TTAATTTAGCACTTAGTTCCCCAAATATTC was 1.63; that for ACAAAAACTGTTTCTATGTGACCTTCACCC was 5.89.
As to CCAGTTCTGTGTACAAAGCCCCATATTCAT, the binding signal (log2 normalized intensity) is 1.86.
The value for CTGGGAACAAGTTCTGCAGACTCCCTAGAA was -1.15.
The value for CTCAAGGCAAGTTGCTTCCACCTATGAGTC was 0.0563.
As for CGACCTGCTGGGCTGCATTCCCAGATGGTT, the figure is -1.44.
As for GGCTAGATTGCAACCAAGTCCATCTGTATT, the binding signal (log2 normalized intensity) is 0.652.
The value for ATTATGAACTAATTTGTCTTTTCTCCCCCG was 4.22.
As for ATCTCTGCTCATAATGCCAGGCAGGAAGGA, the binding signal (log2 normalized intensity) was -1.15.
The value for AGACCTCCCCCAACTTACTTAGTGGCTCCT was 2.35; that for GGCCACTCCCTGGGCAGTGCAGTATGCGCT was -1.33; that for AGGTGAACCAGGGTGCAATTCGCATTTCTG was -1.02.
As for AGGGAATGTAAGGCACTTTATCTAGATAAG, the figure is -1.23; as for GGAGCATGGGGGATGGGGCCTGGGAGATAA, -1.35.
As for TTATCACTTTGTAATGTCCCTCTTTATCTC, the figure is 1.39; as for TCATCCGCATCTGAAGATAAGAGAAGTTGC, -1.03; as for ATGGGGGATGGGGCCTGGGAGATAAGGGTT, -1.23.
